In PubChem BioAssay AID686978 (National Center for Advancing Translational Sciences (NCATS), 2013):
Values joined by “and” are separate entries in the source; they are usually repeats but may differ in a detail not shown here. Equal entries are not always repeated. Screen size: about 420,000 compounds; about 64,000 (15%) were called active. This list was built around the results that the source calls inconclusive (neither active nor inactive); the mix of calls is not that of the screen. The call rests on the fitted dose curve; in most records, active means well fitted inhibition curve with a large enough effect; inconclusive means small, poorly fitted or top-dose-only effect; inactive means flat fitted curve, though single readings scatter. No potency is given beside an inconclusive call; the fits are too rough.

Assay: qHTS for Inhibitors of human tyrosyl-DNA phosphodiesterase 1 (TDP1): qHTS in cells in absence of CPT; further: nearly all actives have a fitted effect of over 55% in size
Conditions: DT40 Tdp1-/- hTDP1 cells, no CPT, ATP luminescence, 48 h; activity change, negative = growth inhibition: at 46.2 µM (top of the series) unless noted
Procedure, shortened: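 Luminescent ATP content (CellTiter-Glo) served as the growth readout. Knockout chicken DT40 cells expressing human TDP1 were exposed to compounds without camptothecin for a minimum 48 hr at 37 °C.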
On the % scale 0 is the no-effect control and ±100 the full control effect; potency means the concentration at half of the fitted maximal effect; tags describe the fitted curve by direction and shape.

SMILES	Potency	activity change, negative = growth inhibition
CC(=O)Nc1ccc(S(=O)(=O)Nc2ccc(Cc3ccncc3)cc2)cc1	active: 9.2 µM	–
Cc1ccc(CNC(=O)C(=O)c2cn(CC(=O)N3CCCC3)c3ccccc23)cc1	inconclusive [inhibitor, full curve, poor fit]	–
Cc1c(N(C)CS(=O)(=O)O)c(=O)n(-c2ccccc2)n1C	inactive	–
Cc1cccc(/C=C2\Oc3cc(OS(C)(=O)=O)ccc3C2=O)c1	inconclusive [inhibitor, partial curve, poor fit]	–
C[C@@H](NC(=O)c1[nH]cnc1C(=O)Nc1nccs1)c1ccccc1	inconclusive [inhibitor, single point]	–
O=C(c1cc2c(F)cccc2s1)N1CCCC1	–	inactive: -2.34%
C/C(=N\NC(=O)Cc1ccc(Br)cc1)c1cccnc1	–	inactive: 6%
CN(C)CCCNS(=O)(=O)c1ccc(Cl)s1	–	inactive: -14.8%
O=S(=O)(NCCS(=O)(=O)N1CCN(c2ccccc2)CC1)c1ccc(F)cc1	–	inactive: -13.9%
Cc1csc(C(C)N(C)C(=O)c2cnn(-c3nccc(-c4cc(C)sc4C)n3)c2C)n1 (centres undefined)	inconclusive [inhibitor, single point]	–
Cc1cccc(C)c1-n1nnnc1C(C1CC1)N1CCN(C/C=C/c2ccccc2)CC1 (centres undefined)	inconclusive [inhibitor, single point]	–
CCOC(=O)c1ccccc1OC(=O)CS(=O)c1ccccc1[N+](=O)[O-] (centres undefined)	inconclusive [inhibitor, single point]	–
O=C(NC1(Cc2ccccc2)CCN(CCCc2ccccc2)C1=O)c1ccccc1 (centres undefined)	active: 1.16 µM	–
NC(=S)N=Nc1c(O)n(Cc2ccccc2)c2ccccc12	active: 6.51 µM	–
Cc1ccc(N2C(=O)c3cccc4c(N5CCN(C)CC5)ccc(c34)C2=O)c2cccnc12	inconclusive [inhibitor, full curve, poor fit]	–
CC1(C)Cc2c(cnn2-c2cccc(F)c2)C(NC(=O)c2cc[n+]([O-])cc2)C1 (centres undefined)	–	inactive: -4.77%
O=C(O)CC(=O)Nc1ccc(Oc2ccc(C(F)(F)F)cn2)c(Cl)c1	–	inactive: 10.7%
Nc1cc(=O)[nH]c(SCc2ccccc2Cl)n1	inconclusive [inhibitor, single point]	–
COc1ccc(N2C(=O)CS/C2=C\[N+](=O)[O-])cc1	inconclusive [inhibitor, partial curve]	–
Cc1cccc(NC(=O)C(=O)NCCc2c[nH]c3ccccc23)c1C	inconclusive [inhibitor, single point]	–
CN1CCN(c2ccc(CNC(=O)C3Cc4c(-c5ccccc5)ccnc4O3)cc2)CC1 (centres undefined)	inconclusive [inhibitor, single point]	–
CC12CN(C(=O)c3ccccc3)C3(C#N)CC1CCC23C (centres undefined)	–	inactive: 0.0248%
COc1ccc(C(=O)Nc2nnc(CCc3ccccc3)s2)c(OC)c1	–	inactive: -21.7%

SMILES	Potency	activity change, negative = growth inhibition
CCC1CN(CCC(=O)NC2CCOC(C)(C)C2)Cc2cc(OC)ccc2O1 (centres undefined)	–	inactive: -5.4%
COc1ccc(/C=C2/SC(=O)N(CCNC(=O)CC(NC(C)=O)c3ccccc3)C2=O)cc1 (centres undefined)	inconclusive [inhibitor, single point]	–
Cc1[nH]c(=O)[nH]c(=O)c1S(=O)(=O)Nc1cccc(C(F)(F)F)c1	–	inactive: 10.6%
CC(C)OC(=O)CSc1nc(N)c(C#N)cc1C#N	inconclusive [inhibitor, single point]	–
COc1ccc2[nH]c(C(=O)Nc3ccc4c(c3)OCO4)cc2c1	–	inactive: -8.75%
CCCCCn1c(SCCN2CCOCC2)nc2c1c(=O)[nH]c(=O)n2C	inconclusive [inhibitor, single point]	–
O=C(Oc1ccc(Cl)c2cccnc12)c1cccnc1	inconclusive [inhibitor, single point]	–
CCCCn1c(SCC(=O)N2CCCCC2C)nc2cc(S(N)(=O)=O)ccc21 (centres undefined)	inconclusive [inhibitor, single point]	–
COc1ccccc1N1CCN(C(=O)c2ccncc2)CC1	–	inconclusive: -28.9% [inhibitor]
Clc1cccc(NCc2nnc(SCc3ccccc3Cl)o2)c1	inconclusive [inhibitor, single point]	–
COCCN(CCOC)Cc1c(O)ccc2c1O/C(=C\c1ccc(C)o1)C2=O	inconclusive [inhibitor, single point]	–
COc1ccc(-c2nn(-c3ccccc3)cc2C(=O)Nc2nccs2)cc1	inconclusive [inhibitor, single point]	–
CC(=O)c1sc(N/N=C\c2ccc(N(C)C)cc2)nc1C	inconclusive [inhibitor, single point]	–
CCOC(=O)c1c(-c2ccc(OC)cc2)oc2cc(Br)c(O)cc12	inconclusive [inhibitor, partial curve]	–
COc1ccc(C)cc1NC(=S)NC(C)c1ccc(OC)c(OC)c1 (centres undefined)	inconclusive [inhibitor, single point]	–
CCOC(=O)c1ccc(NC(=O)CCc2c(C)nc3cc(-c4ccc(OC)cc4OC)nn3c2C)cc1	–	inconclusive: -35.4% [inhibitor]
Cc1ccc(SCCNC(=O)CN(c2cccc(C)c2C)S(C)(=O)=O)cc1	inconclusive [inhibitor, single point]	–
COc1cc(C(=O)Nc2ccc(-c3nc4cc(C)c(C)cc4o3)cc2)cc(OC)c1OC	inconclusive [inhibitor, partial curve]	–
CN(CC(=O)Nc1ccc(Cl)c(C(F)(F)F)c1)C(=O)Cc1c[nH]c2ccccc12	inconclusive [inhibitor, partial curve, poor fit]	–
O=C(Cc1cccs1)N(Cc1cccs1)C1(C(=O)NC2CCCCC2)CCCCC1	active: 16.4 µM	–
Cc1cc(Oc2ccc(-c3ccccc3)cc2)n2ncnc2n1	–	inactive: -24.6%
COc1cccc(N2CCN(Cc3ccsc3)CC2)c1	inconclusive [inhibitor, single point]	–
CN1CCN(C(N)=NC(=O)c2ccccc2)CC1	–	inactive: -11.6%

SMILES	Potency	activity change, negative = growth inhibition
CC(C)Oc1ccc(C(=O)N2CCC(c3nc4ccccc4s3)CC2)cc1	inconclusive [inhibitor, partial curve, poor fit]	–
CC1S/C(=N/N=C2CCCCC2)NC1=O (centres undefined)	active: 10.3 µM	–
C=CC1C(N2CCOCC2)C(C)(C)S1(=O)=O (centres undefined)	inconclusive [inhibitor, single point]	–
O=C(NC1CCCCC1)C(c1ccc(F)cc1)N(Cc1ccc2c(c1)OCO2)C(=O)c1cnsn1 (centres undefined)	inconclusive [inhibitor, partial curve, poor fit]	–
COC(=O)[C@@]1(Cc2ccc(F)cc2)[C@H]2c3cc(C(=O)N4CCCC4)n(CCc4c[nH]c5ccccc45)c3C[C@H]2CN1C(=O)c1ccccc1	inconclusive [inhibitor, single point]	–
O=C(c1ccccc1)c1ccc(OCC(O)CN2CCN(Cc3ccccc3)CC2)cc1 (centres undefined)	active: 23.1 µM	–
CC1=C(C(=O)NCc2cccc(Cl)c2)C2(CCCCCC2)OC1=O	active: 1.84 µM	–
COc1ccc(/C=C/C(=O)NC(=S)Nc2ccccc2C(=O)NC2CCCCC2)cc1	inconclusive [inhibitor, single point]	–
CC(=O)C1=NN(c2ccccc2)C(c2ccc3c(c2)OCO3)N1c1ccccc1 (centres undefined)	inconclusive [inhibitor, partial curve]	–
CCOC(=O)C1CCN(S(=O)(=O)c2ccc3c(c2)N(C(C)=O)CC(C)S3)CC1 (centres undefined)	inconclusive [inhibitor, partial curve]	–
CCOC(=O)c1c(C)oc2nc(C)nc(NCCc3ccc(OCC)cc3)c12	active: 5.17 µM	–
CC(C)(C)c1cc(C(c2cccnc2)N2CCN(CCO)CC2)cc(C(C)(C)C)c1O (centres undefined)	active: 2.31 µM	–
CN(C)S(=O)(=O)c1ccc(Cl)c(-c2nnc3n2CCCCC3)c1	–	inactive: -1.09%
CC(NC(=O)COc1ccccc1F)C1CC2CCC1C2 (centres undefined)	inconclusive [inhibitor, single point]	–
O=c1c2ccccc2sn1-c1ccc(S(=O)(=O)N2CCCC2)cc1	active: 2.51 µM and active: 5.17 µM	–
O=[N+]([O-])c1ccc(Cc2cncc(O)c2)cc1	inconclusive [inhibitor, single point]	–
O=C(N=c1nc2ccccn2s1)c1ccccc1	inconclusive [inhibitor, partial curve]	–
CCOC(=O)Cc1csc(NC(=O)c2cc(-c3ccncc3)nc3ccccc23)n1	inconclusive [inhibitor, single point]	–
Cc1ccc(CCC(=O)Nc2ccc([N+](=O)[O-])cc2)o1	inconclusive [inhibitor, partial curve, poor fit]	–
Cc1ccc(C(=O)NNC(=O)CCCN2C(=O)/C(=C/c3ccccc3Cl)SC2=S)cc1	inconclusive [inhibitor, single point]	–
CCCC1=NN(C(=O)Cc2ccc([N+](=O)[O-])cc2)C(O)(C(F)(F)F)C1 (centres undefined)	inconclusive [inhibitor, single point]	–
CC(=O)Nc1ccc(S(=O)(=O)N2CCC(n3c(C)nc4cccnc43)CC2)cc1	inconclusive [inhibitor, single point]	–
O=C(CN1CCC(C(=O)c2ccc(F)cc2)CC1)NCc1ccccc1F	inconclusive [inhibitor, single point]	–
